Data taken from PubChem BioAssay AID212 (DTP/NCI, 2004).
Records with an inconclusive call do not appear. Certain results were filed several times, with different values. This is not the full list of results. An entry can have further records. The values listed for one entry repeat one measurement across runs, samples, wells, individuals or studies. Records carry a tag for their origin. The letters are not those of the source and start again with each entry. Brackets with × give the number of equal values in this list. *1 amine or outer side, *2 acyl side, *3 side chain or, on linkers, in order; H or OH if unused. Where a SMILES comes first, the peptide text is derived from it. Bridges are numbered along the chain shown (N, C = ends). Roman numbers before positions name the chains, in order. [ ]: non-standard residue; d: D form. The star is where a group is joined. Actinocin(1to9) = Cc1c2oc3c(C)ccc(C(=O)[*:2])c3nc-2c(C(=O)[*:1])c(N)c1=O; X2 = CCC(=O)CC1CC(C)CC(C(=O)[*:2])N1[*:1]; NMeV = CN[CH](C(=O)O)C(C)C; X1 = CCCCCCCCC(C)C(=O)*; Aze = O=C(O)[CH]1CCN1; Aib = CC(C)(N)C(=O)O; X3 = CC(CN(C)CCO)N*; Sar = CNCC(=O)O

Test system: BDF1 mice, colon carcinoma 38 sc, T/C %
Test: NCI In Vivo Anticancer Drug Screen. Data for tumor model Colon Carcinoma 38 (subcutaneous) in B6D2F1 (BDF1) mice
Conditions: endpoint: median tumor weight (est.), higher = larger tumour
Outline: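 Mice with transplanted tumors are treated with compound or vehicle. Survival or tumor size is then measured in both groups. The ratio of treated to control gives the reported figure.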

[1] = dose: 12.5 mg/kg/injection, schedule: Q07DX002 (ip), vehicle: saline with Tween-80
[2] = dose: 25.0 mg/kg/injection, schedule: Q07DX002 (ip), vehicle: saline with Tween-80
[3] = dose: 50.0 mg/kg/injection, schedule: Q07DX002 (ip), vehicle: saline with Tween-80
[4] = dose: 100.0 mg/kg/injection, schedule: Q07DX002 (ip), vehicle: saline with Tween-80
[5] = dose: 200.0 mg/kg/injection, schedule: Q07DX002 (ip), vehicle: saline with Tween-80
[6] = dose: 400.0 mg/kg/injection, schedule: Q07DX002 (ip), vehicle: saline with Tween-80
[7] = dose: 12.5 mg/kg/injection, schedule: Q07DX002 (ip), vehicle: saline
[8] = dose: 25.0 mg/kg/injection, schedule: Q07DX002 (ip), vehicle: saline
[9] = dose: 50.0 mg/kg/injection, schedule: Q07DX002 (ip), vehicle: saline
[10] = dose: 100.0 mg/kg/injection, schedule: Q07DX002 (ip), vehicle: saline
[11] = dose: 200.0 mg/kg/injection, schedule: Q07DX002 (ip), vehicle: saline

How did the T/C (dose: 50.0 mg/kg/injection, schedule: Q07DX003 (ip), vehicle: Klucel (hydroxypropylcellulose) (HPC)) turn out when CC1CN=C(c2ccc(NC(=O)c3ccc(C(=O)Nc4ccc(C5=NCC(C)N5)cc4)cc3)cc2)N1 (centres undefined) was run?
The T/C was 71 % of control and 107 % of control.

And the T/C (dose: 100.0 mg/kg/injection, schedule: Q07DX003 (ip), vehicle: Klucel (hydroxypropylcellulose) (HPC))?
The T/C was 56 % of control and 86 % of control.

CCCCCCCCC(C)C(=O)N1CCCC1C(=O)N1C(CC(=O)CC)CC(C)CC1C(=O)NC(C)C(=O)NC(C)(C)C(=O)NC(C)(C)C(=O)NC(C(=O)NC(C)C(=O)NC(C)(C)C(=O)NC(C)(C)C(=O)NC(C)CN(C)CCO)C(C)CC (centres undefined) (X1-P[X2]A[Aib][Aib]IA[Aib][Aib]-X3; configuration not given here) was tested. Which T/C (dose: 0.62 mg/kg/injection, schedule: Q07DX002 (ip), vehicle: Klucel (hydroxypropylcellulose) (HPC)) did it give?
Its T/C is 76 % of control and 117 % of control.

With NC(Cc1ccc(N(CCCl)CCCl)cc1)C(=O)O (centres undefined) as the molecule, how does the T/C (dose: 2.0 mg/kg/injection, schedule: Q07DX002 (ip), vehicle: Klucel (hydroxypropylcellulose) (HPC)) read?
The T/C was 66 % of control, 87 % of control, 112 % of control.

What about the T/C (dose: 4.0 mg/kg/injection, schedule: Q07DX002 (ip), vehicle: Klucel (hydroxypropylcellulose) (HPC)) of the same molecule?
The T/C was 64 % of control, 92 % of control, 95 % of control.

Which results are given for CC(=S)NC(O)C(=O)c1ccccc1 (centres undefined)?
T/C [1]: 43 % of control and 118 % of control; T/C [2]: 78 % of control and 109 % of control

For COc1ccc2[nH]c3c(c2c1)CCNC3CC(C)CCC=C(C)C (centres undefined), which T/C (dose: 100.0 mg/kg/injection, schedule: Q07DX002 (ip), vehicle: Klucel (hydroxypropylcellulose) (HPC)) is on record?
Its T/C is 56 % of control and 85 % of control.

O=C1N(Cl)C(=O)C(c2ccc(Cl)cc2)(c2ccc(Cl)cc2)N1Cl was tested. Which T/C [3] did it give?
The T/C was 59 % of control, 76 % of control, 99 % of control.

What about the T/C [4] of the same molecule?
Its T/C is 64 % of control, 97 % of control, 101 % of control.

And the T/C [5]?
Its T/C is 58 % of control, 78 % of control, 124 % of control.

And the T/C [6]?
Its T/C is 42 % of control, 58 % of control, 79 % of control.

NC(Cc1ccc(N(CCCl)Cc2ccccc2)cc1)C(=O)O (centres undefined) was tested. Which T/C (dose: 100.0 mg/kg/injection, schedule: Q07DX002 (ip), vehicle: distilled water + Tween-80) did it give?
Its T/C is 64 % of control and 97 % of control.

How did the T/C (dose: 0.25 mg/kg/injection, schedule: Q07DX002 (ip), vehicle: saline) turn out when COc1cccc2c1C(=O)c1c(O)c3c(c(O)c1C2=O)C[C@@](O)(C(=O)CO)C[C@@H]3OC1CC(N)C(O)C(C)O1 (some centres undefined) was run?
Its T/C is 85 % of control and 123 % of control.

What about the T/C (dose: 1.5 mg/kg/injection, schedule: Q07DX003 (iv), vehicle: saline) of the same molecule?
Its T/C is 91 % of control and 151 % of control.

And the T/C (dose: 6.0 mg/kg/injection, schedule: Q07DX002 (ip), vehicle: saline)?
Its T/C is 33 % of control [sample A] and 97 % of control [sample B].

And the T/C (dose: 6.0 mg/kg/injection, schedule: Q07DX003 (iv), vehicle: saline)?
Its T/C is 15 % of control and 62 % of control.

OCC1OC(n2cnc3c(NO)nc(NO)nc32)C(O)C1O (centres undefined) was tested. Which T/C (dose: 6.25 mg/kg/injection, schedule: Q07DX002 (ip), vehicle: saline) did it give?
Its T/C is 70 % of control and 108 % of control.

What about the T/C [7] of the same molecule?
Its T/C is 51 % of control, 70 % of control, 225 % of control.

And the T/C [8]?
The T/C was 43 % of control, 62 % of control, 193 % of control.

And the T/C [9]?
The T/C was 43 % of control, 75 % of control, 223 % of control.

And the T/C [10]?
Its T/C is 63 % of control, 84 % of control, 121 % of control.

And the T/C [11]?
The T/C was 30 % of control, 71 % of control, 120 % of control.

How did the T/C [2] turn out when CC(=Nc1ccccc1)C1=C(O)C(Cc2ccccc2)NC1=O (centres undefined) was run?
The T/C was 61 % of control and 112 % of control.

And the T/C [3]?
The T/C was 79 % of control and 110 % of control.

And the T/C [6]?
The T/C was 48 % of control and 84 % of control.

How did the T/C (dose: 25.0 mg/kg/injection, schedule: Q07DX002 (ip), vehicle: Klucel (hydroxypropylcellulose) (HPC)) turn out when O=C(Nc1ccc(N=C=S)cc1Cl)c1cc(Cl)cc(Cl)c1O was run?
The T/C was 87 % of control and 155 % of control.

With O=NN(CCCl)C(=O)NCCO as the molecule, how does the T/C (dose: 6.25 mg/kg/injection, schedule: Q07DX002 (ip), vehicle: water) read?
Its T/C is 56 % of control and 93 % of control.

CCCCCCCCCCS(=O)CC(CO)NC(=O)/C=C/c1c(C)[nH]c(=O)[nH]c1=O (centres undefined) was tested. Which T/C (dose: 0.75 mg/kg/injection, schedule: Q07DX002 (ip), vehicle: distilled water + Tween-80) did it give?
Its T/C is 68 % of control and 160 % of control.

And the T/C (dose: 6.0 mg/kg/injection, schedule: Q07DX002 (ip), vehicle: distilled water + Tween-80)?
Its T/C is 111 % of control and 158 % of control.

And the T/C (dose: 24.0 mg/kg/injection, schedule: Q07DX002 (ip), vehicle: distilled water + Tween-80)?
Its T/C is 58 % of control, 101 % of control, 151 % of control.

C[C@H]1C[C@@H]2[C@H]([C@@H](O)C[C@@]3(C)[C@H]2CC[C@]3(O)C(=O)CO)[C@@]2(C)C=CC(=O)C=C12 was tested. Which T/C (dose: 12.5 mg/kg/injection, schedule: Q07DX002 (ip), vehicle: Klucel (hydroxypropylcellulose) (HPC)) did it give?
Its T/C is 52 % of control and 92 % of control.

What about the T/C (dose: 50.0 mg/kg/injection, schedule: Q07DX002 (ip), vehicle: Klucel (hydroxypropylcellulose) (HPC)) of the same molecule?
Its T/C is 74 % of control and 112 % of control.

Which results are given for CN=S(=O)(OCCCCCOS(=O)(=NC)c1ccc(C)cc1)c1ccc(C)cc1 (centres undefined)?
T/C [1]: 66 % of control and 232 % of control; T/C [2]: 74 % of control and 102 % of control

For O=C1c2ccccc2C(=O)c2c1cn1c2Cc2ccccc2C1, which T/C (dose: 150.0 mg/kg/injection, schedule: Q07DX002 (ip), vehicle: Klucel (hydroxypropylcellulose) (HPC)) is on record?
Its T/C is 4 % of control (2×) and 30 % of control.

BrC1c2cccc3cccc(c23)C1Br (centres undefined) was tested. Which T/C [3] did it give?
Its T/C is 71 % of control and 100 % of control.

With COC1(OC)C2C=CC1CC2 as the molecule, how does the T/C [2] read?
The T/C was 94 % of control and 123 % of control.

What about the T/C [4] of the same molecule?
Its T/C is 71 % of control and 99 % of control.

Which results are given for Cc1c2oc3c(C)ccc(C(=O)NC4C(=O)NC(C(C)C)C(=O)N5CCCC5C(=O)N(C)CC(=O)N(C)C(C(C)C)C(=O)OC4C)c3nc-2c(C(=O)NC2C(=O)NC(C(C)C)C(=O)N3CCC3C(=O)N(C)CC(=O)N(C)C(C(C)C)C(=O)OC2C)c(N)c1=O (centres undefined) (I: TV[Aze][Sar][NMeV] / II: TVP[Sar][NMeV]; ester I:1-I:C, II:1-II:C; linker I:N-II:N via Actinocin(1to9); configuration not given here)?
T/C (dose: 75.0 micrograms/kg/injection, schedule: Q07DX002 (ip), vehicle: saline + alcohol): 81 % of control, 97 % of control, 112 % of control; T/C (dose: 150.0 micrograms/kg/injection, schedule: Q07DX002 (ip), vehicle: saline + alcohol): 50 % of control, 65 % of control, 90 % of control; T/C (dose: 300.0 micrograms/kg/injection, schedule: Q07DX002 (ip), vehicle: saline + alcohol): 61 % of control, 71 % of control, 100 % of control; T/C (dose: 1200.0 micrograms/kg/injection, schedule: Q07DX002 (ip), vehicle: saline + alcohol): 27 % of control and 61 % of control

Which results are given for CC1(C)N=C(N)N=C(N)N1c1ccc(CCCCc2ccc(S(=O)(=O)F)cc2Cl)c(Cl)c1?
T/C [7]: 62 % of control, 80 % of control, 157 % of control; T/C [8]: 62 % of control, 80 % of control, 188 % of control; T/C [10]: 42 % of control, 51 % of control, 72 % of control

How did the T/C (dose: 4.0 mg/kg/injection, schedule: Q07DX002 (ip), vehicle: saline) turn out when Nc1ncnc2c1ncn2C1C=C(CO)C(O)C1O (centres undefined) was run?
Its T/C is 78 % of control and 108 % of control.

How did the T/C (dose: 12.5 mg/kg/injection, schedule: Q07DX003 (ip), vehicle: saline) turn out when Cc1cn(C2CC(O)C(CO)O2)c(=O)[nH]c1=O (centres undefined) was run?
Its T/C is 20 % of control and 85 % of control.

And the T/C (dose: 100.0 mg/kg/injection, schedule: Q07DX003 (ip), vehicle: saline)?
The T/C was 115 % of control and 150 % of control.

With COC(=O)Nc1nc2ccc(C3(c4ccc(F)cc4)OCCO3)cc2[nH]1 as the molecule, how does the T/C [9] read?
Its T/C is 70 % of control and 122 % of control.

And the T/C [10]?
The T/C was 77 % of control and 192 % of control.

And the T/C [11]?
The T/C was 57 % of control and 101 % of control.

Which T/C [2] does the source give for Nc1ccc(S(=O)(=O)c2ccc(N)cc2)cc1 here?
Its T/C is 92 % of control and 121 % of control.

What about the T/C [4] of the same molecule?
The T/C was 67 % of control and 118 % of control.

And the T/C (dose: 112.0 mg/kg/injection, schedule: Q07DX002 (ip), vehicle: saline with Tween-80)?
Its T/C is 60 % of control and 87 % of control.

And the T/C [5]?
Its T/C is 85 % of control and 112 % of control.

And the T/C (dose: 225.0 mg/kg/injection, schedule: Q07DX002 (ip), vehicle: saline with Tween-80)?
The T/C was 40 % of control and 78 % of control.

And the T/C [6]?
The T/C was 77 % of control and 106 % of control.

With BrC1CC(Br)c2c1c1c(c3c2C(Br)CC3Br)C(Br)CC1Br (centres undefined) as the molecule, how does the T/C [3] read?
The T/C was 79 % of control and 118 % of control.
